Data published in the supplement of paper PMC4604168 (melanoma cell lines).
The list shows a part of the results. Most values come without repeats; read them as rough.

Columns and labels:
Assay in all cases: cell count relative to DMSO control; melanoma cells; higher = more viable cells
Details in all cases: library dose: low library concentration; 72 h
MZ2-MEL = system: MZ2-MEL
MeWo = system: MeWo
RPMI7951 = system: RPMI7951
RVH-421 = system: RVH-421
SkMel28 = system: SkMel28
SkMel2 = system: SkMel2
SkMel30 = system: SkMel30
UACC62 = system: UACC62
WM115 = system: WM115
WM1716 = system: WM1716
WM1745 = system: WM1745
WM3526 = system: WM3526
WM3619 = system: WM3619
WM451Lu = system: WM451Lu
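Further: cell number obtained by counting DAPI-stained nuclei in high-throughput microscope images with image analysis software, screen run in 1,536-well plates.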

SMILES	cell count (MZ2-MEL) [%]	cell count (MeWo) [%]	cell count (RPMI7951) [%]	cell count (RVH-421) [%]	cell count (SkMel28) [%]	cell count (SkMel2) [%]	cell count (SkMel30) [%]	cell count (UACC62) [%]	cell count (WM115) [%]	cell count (WM1716) [%]	cell count (WM1745) [%]	cell count (WM3526) [%]	cell count (WM3619) [%]	cell count (WM451Lu) [%]
COc1cc([C@@H]2c3cc4c(cc3[C@@H](O[C@@H]3O[C@@H]5CO[C@@H](C)O[C@H]5[C@H](O)[C@H]3O)[C@H]3COC(=O)[C@H]23)OCO4)cc(OC)c1O [etoposide] + COCC[n+]1c2c(n(Cc3cnccn3)c1C)C(=O)c1ccccc1C2=O [YM155] (first compound 0.02 µM, partner dose 0.0004 µM)	64.8	88.7	98.6	110	91.8	85.2	83.6	72.5	91.9	92.8	89.6	103	102	88.1
COc1cc([C@@H]2c3cc4c(cc3[C@@H](O[C@@H]3O[C@@H]5CO[C@@H](C)O[C@H]5[C@H](O)[C@H]3O)[C@H]3COC(=O)[C@H]23)OCO4)cc(OC)c1O [etoposide] + Cn1c(=O)n(-c2ccc(C(C)(C)C#N)cc2)c2c3cc(-c4cnc5ccccc5c4)ccc3ncc21 [NVP-BEZ235] (first compound 0.02 µM, partner dose 0.004 µM)	96.7	84.1	95	85.9	93.9	90	93.5	79.2	89.6	83.5	91.5	93.3	78.3	108
COc1cc([C@@H]2c3cc4c(cc3[C@@H](O[C@@H]3O[C@@H]5CO[C@@H](C)O[C@H]5[C@H](O)[C@H]3O)[C@H]3COC(=O)[C@H]23)OCO4)cc(OC)c1O [etoposide] + CC(=O)c1c(C)c2cnc(Nc3ccc(N4CCNCC4)cn3)nc2n(C2CCCC2)c1=O [palbociclib] (first compound 0.02 µM, partner dose 0.04 µM)	71.7	73.8	66.8	65.4	79.3	83	71.9	67.5	73.3	64.3	59.4	46.5	58.7	91.3
CCN(CC)CCNC(=O)c1c(C)[nH]c(/C=C2\C(=O)Nc3ccc(F)cc32)c1C [sunitinib] + O=C(O)[C@@H]1[O][Sb](=[O])([O][Sb]2(=[O])[O][C@H]([C@H](O)CO)[C@H](O)[C@H](C(=O)O)[O]2)[O][C@H]([C@H](O)CO)[C@@H]1O [stibogluconate] (first compound 0.4 µM, partner dose 2 µM)	100	102	125	118	85.6	116	114	97.2	99.8	134	85.2	89.6	99.5	111
COc1cc([C@@H]2c3cc4c(cc3[C@@H](O[C@@H]3O[C@@H]5CO[C@@H](C)O[C@H]5[C@H](O)[C@H]3O)[C@H]3COC(=O)[C@H]23)OCO4)cc(OC)c1O [etoposide] + O=C(O)[C@@H]1[O][Sb](=[O])([O][Sb]2(=[O])[O][C@H]([C@H](O)CO)[C@H](O)[C@H](C(=O)O)[O]2)[O][C@H]([C@H](O)CO)[C@@H]1O [stibogluconate] (first compound 0.02 µM, partner dose 2 µM)	87.4	91.5	88.4	104	111	99.8	79.7	89.7	83	86.9	85.3	85.9	92.5	87.2
Cn1cnc2c(F)c(Nc3ccc(Br)cc3Cl)c(C(=O)NOCCO)cc21 [selumetinib] + COc1ccc(C2=N[C@@H](c3ccc(Cl)cc3)[C@@H](c3ccc(Cl)cc3)N2C(=O)N2CCNC(=O)C2)c(OC(C)C)c1 [Nutlin-3] (first compound 0.015 µM, partner dose 0.1 µM)	88.8	82.7	101	79	98	68.8	74.3	61	91.5	102	101	95	63.4	100
COc1cc([C@@H]2c3cc4c(cc3[C@@H](O[C@@H]3O[C@@H]5CO[C@@H](C)O[C@H]5[C@H](O)[C@H]3O)[C@H]3COC(=O)[C@H]23)OCO4)cc(OC)c1O [etoposide] + CC(C)C[C@H](NC(=O)[C@H](Cc1ccccc1)NC(=O)c1cnccn1)B(O)O [Bortezomib] (first compound 0.02 µM, partner dose 0.001 µM)	67.9	79.2	81	82.4	96	97.8	86.1	74.2	98.7	37.7	58.7	67.2	38.3	75
Cn1cnc2c(F)c(Nc3ccc(Br)cc3Cl)c(C(=O)NOCCO)cc21 [selumetinib] + Nc1nc(F)nc2c1ncn2[C@@H]1O[C@H](CO)[C@@H](O)[C@@H]1O [fludarabine] (first compound 0.015 µM, partner dose 0.2 µM)	90.2	43.1	99	104	67.5	2.79	16.4	74.6	101	139	95	23	89.7	53.5
COc1cc([C@@H]2c3cc4c(cc3[C@@H](O[C@@H]3O[C@@H]5CO[C@@H](C)O[C@H]5[C@H](O)[C@H]3O)[C@H]3COC(=O)[C@H]23)OCO4)cc(OC)c1O [etoposide] + CN(c1ncccc1CNc1nc(Nc2ccc3c(c2)CC(=O)N3)ncc1C(F)(F)F)S(C)(=O)=O [PF562271] (first compound 0.02 µM, partner dose 0.08 µM)	88	94.5	89.8	99.5	72.8	82.6	110	71.9	81.3	80.9	88.5	85.2	83.3	85.6
